Assay results: PubChem BioAssay AID624296 (National Center for Advancing Translational Sciences (NCATS), 2012)
About 9,900 (2.8%) of roughly 350,000 compounds were called active. Inconclusive means that the source gave no clear call. Such entries were picked first, then a sample of the others. The call rests on the fitted dose curve; in most records, active means well fitted activation curve with a large enough effect; inconclusive means small, poorly fitted or top-dose-only effect; inactive means no such curve, though single readings can be large or run the other way. No potency is given beside an inconclusive call; the fits are too rough.

Assay: A quantitative high throughput screen for small molecules that induce DNA re-replication in MCF 10a normal breast cells. Further: nearly all actives have a fitted effect of over 50% in size.
Conditions: MCF 10A DNA re-replication, Hoechst nuclear intensity, 48 h; series mostly up to 46.1 µM
Potency means the concentration at half of the fitted maximal effect; tags describe the fitted curve by direction and shape.

| SMILES | Potency |
| --- | --- |
| COc1cccc(N2CCN(C(=O)c3cc(-c4ccc(F)cc4)[nH]c3C)CC2)c1 | inconclusive [activator, partial curve, poor fit] |
| CCCOc1ccc(C(=O)CCC(=O)OC(C)C(=O)Nc2ccc(NC(C)=O)cc2)cc1 (stereo unspecified) | inactive |
| O=S(=O)(CCN1CCN(c2ccccc2O)CC1)c1cc(Cl)ccc1Cl | inconclusive [activator, single point] |
| CCC(C)(C)n1nnnc1C(c1ccc(C)cc1)N1CCN(Cc2ccc3c(c2)OCO3)CC1 (stereo unspecified) | inactive |
| CC(=O)Nc1cc(C(=O)OCC(=O)c2ccc(Cl)cc2Cl)ccc1C | inactive |
| CCOC(=O)c1ccc2c(c1)nc(SCC(=O)c1ccco1)n2CC | inactive |
| CCC1=NN2C(=N)/C(=C\c3cccn3-c3ccc(C)cc3C)C(=O)N=C2S1 | inconclusive [activator, single point] |
| COCCCNCCCCOc1ccccc1-c1ccccc1 | inactive |
| CCOC(=O)c1c(NC(=O)CCNCc2ccco2)sc2c1CCC2 | inactive |
| C=CCOc1ccc(Oc2cc(C)nc(SC)n2)nn1 | inactive |
| O=C(COC(=O)c1cnccn1)Nc1cc(S(=O)(=O)N2CCOCC2)ccc1Cl | inactive |
| Cn1c(SCc2ccccc2)nc(N)c(N=O)c1=O | inconclusive [activator, single point] |
| CCCC(=O)Nn1cnc2c(c1=O)C1(CCCCC1)Cc1ccccc1-2 | inconclusive [activator, single point] |
| O=C(COC(=O)c1cc2c(s1)CCCC2)Nc1ccc(Cl)cn1 | inconclusive [activator, single point] |
| CCCOc1ccc(C2=CSC3=NCCN23)cc1Cl | inconclusive [activator, partial curve, poor fit] |
| COc1ccc(N2CCN(S(=O)(=O)c3cnc[nH]3)CC2)cc1 | inconclusive [activator, single point] |
| O=C(CCl)Nc1cn(-c2ccccc2)nc1-c1ccc(F)cc1 | inconclusive [activator, single point] |
| CCC1CCc2sc(C(=O)N(C)CC(=O)Nc3ccc(OC)cc3)cc2C1 (stereo unspecified) | inconclusive [activator, single point] |
| CN(CC(=O)Nc1nc2ccccc2s1)S(=O)(=O)c1ccc(Cl)cc1 | inconclusive [activator, partial curve, poor fit] |
| COC(=O)c1cccc(NC(=O)Nc2ccc(Cl)c(Cl)c2)c1 | inconclusive [activator, single point] |
| COc1cccc(N2C(N)=NC(N)=NC2(C)C)c1 | inconclusive [activator, full curve] |
| COc1ccc(C2c3cc4c(cc3OC(NNC(N)=O)C2C)OCO4)cc1 (stereo unspecified) | inconclusive [activator, single point] |
| O=C(Nc1cnn(Cc2ccc(F)cc2)c1)c1cc(-c2cccs2)on1 | inconclusive [activator, single point] |
| O=C1CN(C(=O)CSc2nc3ccccc3c(=O)n2Cc2ccc(F)cc2)c2ccccc2N1 | inactive |

| SMILES | Potency |
| --- | --- |
| COc1ccc(N(C)C(=O)c2cc3c(s2)-c2c(C)cccc2OC3)c(OC)c1 | inconclusive [activator, partial curve, poor fit] |
| COCc1c(C(=O)N2CCc3ccccc32)oc2ccccc12 | inconclusive [activator, single point] |
| CCc1nc(SCC(=O)N2CCN(C(=O)c3ccco3)CC2)c2c3c(sc2n1)CCCC3 | inconclusive [activator, single point] |
| Clc1ccccc1-c1nc2nc3ccccc3nc2n1-c1ccc2c(c1)OCO2 | inconclusive [activator, partial curve, poor fit] |
| CCOc1cc(C(=O)NCC(C)CN(C)C)cc(OCC)c1OCC (stereo unspecified) | inconclusive [activator, single point] |
| CCCN(C(=O)C1CCCN(c2ncnc3c2nc2n3CCCCC2)C1)c1ccc(F)cc1 (stereo unspecified) | inconclusive [activator, single point] |
| CC(=O)NC(=S)Nc1sc2c(c1C#N)CCCCC2 | inconclusive [activator, single point] |
| Cc1ccc(NS(=O)(=O)c2ccc(C(=O)NNC(=O)c3ccccc3O)cc2)cc1 | inconclusive [activator, partial curve, poor fit] |
| O=C(O)CCc1ccc(-c2ccc(Cl)cc2)o1 | active: 20.6 µM |
| O=C1NC2(CCCCCC2)C(=O)N1Cc1ccc(F)cc1Cl | inactive |
| COc1ccc(-c2ccc(-c3noc(C(C)C)n3)c(OC)n2)cc1 | inconclusive [activator, single point] |
| CC1CC(OCC(O)CN2CCN(Cc3ccccc3)CC2)CC(C)(C)C1 (stereo unspecified) | inconclusive [activator, single point] |
| Nc1nc(N2CCN(C(=O)c3ccco3)CC2)nc2ccc(Br)cc12 | inconclusive [activator, single point] |
| Cc1cc(C(=O)N2CCN(c3ncccn3)CC2)sc1-c1ccccc1 | inactive |
| COCCCN1C(=O)c2ccc(C(=O)Nc3ccc(C)cc3C)cc2C1=O | inactive |
| CC(C)(C)NCC(=Cc1ccccc1)C(=O)c1ccccc1 | active: 1.84 µM |
| FC(F)(F)COc1nc(OCC(F)(F)F)nc(N2CCN(c3ccccc3)CC2)n1 | inconclusive [activator, partial curve, poor fit] |
| CCn1nc(C)c(CNC(=O)Nc2ccccc2C(=O)OC)c1C | inconclusive [activator, single point] |
| COc1ccc(OC)c(-n2c(N)c(C(=O)NCC3CCCO3)c3nc4ccccc4nc32)c1 (stereo unspecified) | active: 8.2 µM |
| CCOc1cc(/C=C2/SC(=S)N(CC3CCCO3)C2=O)ccc1O (stereo unspecified) | inconclusive [activator, full curve] |
| Cc1ccc(Cc2cnc(NC(=O)c3ccco3)s2)cc1 | inactive |
| O=C(c1ccccc1)c1ccc(N2CCOCC2)cc1 | inactive |
| O=C(COC(=O)c1c(Cl)cccc1Cl)Nc1ccccc1Br | inconclusive [activator, partial curve] |
| COc1ccc(OC)c(S(=O)(=O)N2CCC(C(=O)N3CCc4ccccc4C3)CC2)c1 | inactive |

| SMILES | Potency |
| --- | --- |
| Cc1ccccc1C(=O)NC(=S)NCC(=O)c1ccccc1 | inconclusive [activator, partial curve, poor fit] |
| Cc1nc(NC(C)c2ccccc2)c2oc3ccccc3c2n1 (stereo unspecified) | inconclusive [activator, partial curve, poor fit] |
| COc1ccc(C(CNC(=O)C(C)(C)Oc2ccc(Cl)cc2)N2CCOCC2)cc1 (stereo unspecified) | inconclusive [activator, full curve, poor fit] |
| Cc1cc(-c2ccccc2)nc(Nc2nc3c(C)cccc3c(=O)[nH]2)n1 | active: 9.2 µM |
| O=C(/C=C/c1ccccc1)N(Cc1cccc(Cl)c1)C1CCS(=O)(=O)C1 (stereo unspecified) | inconclusive [activator, full curve, poor fit] |
| COc1ccc(C(=O)NC(=S)Nc2ccccc2N2CCCCC2)cc1[N+](=O)[O-] | inconclusive [activator, partial curve, poor fit] |
| COc1cc(Cn2c(-c3nonc3N)nc3ccccc32)ccc1C | active: 3.98 µM |
| COc1ccc(C(C)=O)cc1COC(=O)c1cc2ccccc2cc1O | inconclusive [activator, single point] |
| CCN(C(=O)CSc1nnc(C(C)N(C)C)n1-c1ccc(F)cc1)C1CCS(=O)(=O)C1 (stereo unspecified) | inconclusive [activator, full curve, poor fit] |
| CCOC(=O)CN(c1ccccn1)S(=O)(=O)c1ccccc1 | inactive |
| CC(OC(=O)CNC(=O)C12CC3CC(CC(C3)C1)C2)C(=O)Nc1ncc(Cl)cc1Cl (stereo unspecified) | inactive |
| CCC(=O)n1nc(-c2ccccc2)nc1NCc1ccccc1 | inconclusive [activator, partial curve, poor fit] |
| O=C(NCc1ccco1)c1cc(S(=O)(=O)N2CCCC2)ccc1Cl | inconclusive [activator, single point] |
| N#Cc1ccc(COC(=O)c2cnc(Cl)c(Cl)c2)cc1 | inactive |
| CN(O)C(=S)c1ccccc1 | inconclusive [activator, full curve] |
| COc1ccc(CSCC(=O)NCCC(C)C)cc1 | inactive |
| CC[C@]12C(=O)N(C)C[C@H]([C@@H]3C(=O)N(C)C(=O)[C@@H]31)N2C(=O)c1ccc(C(C)(C)C)cc1 | inactive |
| Cc1ccc(N2CC(C(=O)OCC(=O)c3ccc([N+](=O)[O-])cc3)CC2=O)cc1 (stereo unspecified) | inactive |
| Cc1ccc(S(=O)(=O)c2c(C)cc(C)nc2Oc2cccc(C(F)(F)F)c2)cc1 | inconclusive [activator, partial curve, poor fit] |
| Cc1ccccc1Nc1c(-c2ccc(N3CCOCC3)cc2)nc2cnccn12 | inconclusive [activator, single point] |
| Cc1nc2c(C)c(C)c(C)c(C)c2nc1C | inconclusive [activator, partial curve, poor fit] |
| COc1ccc(C(C[N+](=O)[O-])c2c(C)cc3ccccn23)cc1 (stereo unspecified) | active: 20.6 µM |
| Cc1ccn2c(NC3CCCC3)c(-c3cccs3)nc2c1 | inconclusive [activator, single point] |
